{"source": "the RNAGym collection of RNA variant scans (doi:10.7554/elife.90254)", "parents": {"B1": {"name": "LINE1-mini (parent)", "chain": "GGCAGAGCUCAACACAGCGUGGCAAAGUGGCUGUGGCUAGACUGCC"}}, "note": "The source gives no read counts; variants with many changes may rest on few reads."}
{"variants_of": "B1", "experiment": "self-cleavage, relative activity (ratio to wild type); higher = more cleavage; in vitro, sequencing; the parent is a self-cleaving ribozyme"}
{"variant": "A6U C18A U20C A25C C37U C45A", "self-cleavage": 0.02}
{"variant": "A6G U9G C23A G29A C42G G44U", "self-cleavage": 0.01}
{"variant": "A6U A11G G27C G29C", "self-cleavage": 0.01}
{"variant": "A6G A26G U28G", "self-cleavage": 0.1}
{"variant": "A6G A14C C15A U34G G44A", "self-cleavage": 0.01}
{"variant": "A6G U9A C13U C18G G30C G40U A41G", "self-cleavage": 0.07}
{"variant": "A6U C13G U20G G30A", "self-cleavage": 0.19}
{"variant": "A6G C18G C37A U38G U43C", "self-cleavage": 0.01}
{"variant": "A6G A11G G17U C23U G44C", "self-cleavage": 0.01}
{"variant": "A6U C10A G27C U38G", "self-cleavage": 0.02}
{"variant": "A6U A11G C15A C31U", "self-cleavage": 0.01}
{"variant": "A6G C10U A11G", "self-cleavage": 0.01}
{"variant": "A6G C10A G19U C23A G29U", "self-cleavage": 0.02}
{"variant": "A6G C10G G29A A39U", "self-cleavage": 0.06}
{"variant": "A6G G19C G27A G29U G36A", "self-cleavage": 0.27}
{"variant": "A6U C13G C23A U34G", "self-cleavage": 0.01}
{"variant": "A6G A25C U28C", "self-cleavage": 0.02}
{"variant": "A6G C18A A39U", "self-cleavage": 0.04}
{"variant": "A6U C15G G33A C37G G40U", "self-cleavage": 0.01}
{"variant": "A6G A16G G44A", "self-cleavage": 0.02}
{"variant": "A6G A26G U34A G44A", "self-cleavage": 0.07}
{"variant": "A6U C13A C23G", "self-cleavage": 0.15}
{"variant": "A6G G21U A24U G35U", "self-cleavage": 0.19}
{"variant": "A6C U9C G27C", "self-cleavage": 0.02}
{"variant": "A6G C10U C15U G22A", "self-cleavage": 0.03}
{"variant": "A6G A14U G21U C42U", "self-cleavage": 0.03}
{"variant": "A6G A14U U34A", "self-cleavage": 0.04}
{"variant": "A6G G19A G40A C42U", "self-cleavage": 0.01}
{"variant": "A6G A14G G19U", "self-cleavage": 0.06}
{"variant": "A6U C23U U43A", "self-cleavage": 0.14}
{"variant": "A6G C23U G27C A41G C45A", "self-cleavage": 0.14}
{"variant": "A6G G7A G21A C31U U32C U34G G44A C45A", "self-cleavage": 0.06}
{"variant": "A6G A16U U20C", "self-cleavage": 0.03}
{"variant": "A6G C13A G19C", "self-cleavage": 0.1}
{"variant": "A6G A12U G29U", "self-cleavage": 0.09}
{"variant": "A6U G7A C15G G17A C31A", "self-cleavage": 0.06}
{"variant": "A6C U9G C13U C42A", "self-cleavage": 0.1}
{"variant": "A6U C13A C31U G35A", "self-cleavage": 0.1}
{"variant": "A6G C8U G33U", "self-cleavage": 0.76}
{"variant": "A6U A25G G36U C45A", "self-cleavage": 0.05}
{"variant": "A6G U28G G35A", "self-cleavage": 0.03}
{"variant": "A6C U34C G40U", "self-cleavage": 0.45}
{"variant": "A6G G17C G21C A24C", "self-cleavage": 0.09}
{"variant": "A6G C15A U28A C45U", "self-cleavage": 0.02}
{"variant": "A6G C18A C37U", "self-cleavage": 0.02}
{"variant": "A6G C10A G35U", "self-cleavage": 0.01}
{"variant": "A6G G36A G44C", "self-cleavage": 0.18}
{"variant": "A6G A26U G30U U34C", "self-cleavage": 0}
{"variant": "A6U G7U A11G G29C U34A C37U", "self-cleavage": 0.01}
{"variant": "A6G A12U C37A", "self-cleavage": 0.05}
{"variant": "A6U C18U G22C", "self-cleavage": 0.47}
{"variant": "A6G C15A G17C C37U", "self-cleavage": 0.03}
{"variant": "A6U G17U G22C G30U", "self-cleavage": 0.22}
{"variant": "A6U C37A A41C C46A", "self-cleavage": 0.01}
{"variant": "A6U C10U G29A", "self-cleavage": 0.1}
{"variant": "A6U C18U U20G A24U U34G A39G", "self-cleavage": 0.01}
{"variant": "A6G C8A A26C U38A", "self-cleavage": 0.05}
{"variant": "A6U C10A G21U G36A A39U", "self-cleavage": 0}
{"variant": "A6G C10A A16C U38G", "self-cleavage": 0.01}
{"variant": "A6U G19C G21A G22U U38G A39U G40U", "self-cleavage": 0.01}
{"variant": "A6G G7A A25G G27U", "self-cleavage": 0.01}
{"variant": "A6C U9C C10U C18G U20G G22C", "self-cleavage": 0.03}
{"variant": "A6G G17C U20G G36A", "self-cleavage": 0}
{"variant": "A6U C8U G21U C37G", "self-cleavage": 0.02}
{"variant": "A6G A16G G40U", "self-cleavage": 0.01}
{"variant": "A6U C18A A39U", "self-cleavage": 0.81}
{"variant": "A6U C45U C46G", "self-cleavage": 0.62}
{"variant": "A6U A12G G22C A39U U43A", "self-cleavage": 0.03}
{"variant": "A6U A24C G29A C45A", "self-cleavage": 0.22}
{"variant": "A6G A16C G22U", "self-cleavage": 0.09}
{"variant": "A6G A11U A16C G36C", "self-cleavage": 0.01}
{"variant": "A6U A25C G27A U28G C31A U38G G44U C46A", "self-cleavage": 0.03}
{"variant": "A6U C8A C10U G22C U28G", "self-cleavage": 0.05}
{"variant": "A6G U28G C46A", "self-cleavage": 0.1}
{"variant": "A6G A39C A41G", "self-cleavage": 0.05}
{"variant": "A6G C10G A14G G19C U20C", "self-cleavage": 0.01}
{"variant": "A6G G7C C31U U32C G35A G40A U43C", "self-cleavage": 0.09}
{"variant": "A6G A25U G27U G30U", "self-cleavage": 0.07}
{"variant": "A6U G7A C8A A12C C13A", "self-cleavage": 0.59}
{"variant": "A6G C37A C45U", "self-cleavage": 0.02}
{"variant": "A6U C13A G35C", "self-cleavage": 0.05}
{"variant": "A6G G22U G30C G35A G40A", "self-cleavage": 0.03}
{"variant": "A6G G7C U9G C31U", "self-cleavage": 0.09}
{"variant": "A6G A26U C37A A39U", "self-cleavage": 0.04}
{"variant": "A6G C15U U28A", "self-cleavage": 0.02}
{"variant": "A6U G19U C37U", "self-cleavage": 0.02}
{"variant": "A6G A12G C13U G27A U28G G29C", "self-cleavage": 0.02}
{"variant": "A6G G7C C10A A25C G33C C42A", "self-cleavage": 0.01}
{"variant": "A6G G29C C37G", "self-cleavage": 0.01}
{"variant": "A6G A11G G21A G30C", "self-cleavage": 0.02}
{"variant": "A6G A12C C31A C42U", "self-cleavage": 0.04}
{"variant": "A6U C8A G27U", "self-cleavage": 0.19}
{"variant": "A6U C8A A12U C18A G36C C45A", "self-cleavage": 0.02}
{"variant": "A6G G7U U20C A25U G35A", "self-cleavage": 0.07}
{"variant": "A6U C37U G40C", "self-cleavage": 0.1}
{"variant": "A6U C18G G19U G33U G44U", "self-cleavage": 0}
{"variant": "A6U C23U U32C", "self-cleavage": 0.25}
{"variant": "A6U C15A A16G C37G", "self-cleavage": 0.05}
{"variant": "A6U C10A G27A U28C", "self-cleavage": 0.03}
{"variant": "A6G G17U A26C G30U A39C A41C", "self-cleavage": 0.03}
{"variant": "A6G A16C C31A G35C", "self-cleavage": 0.01}
{"variant": "A6U C10G G40A C42G G44C", "self-cleavage": 0.02}
{"variant": "A6G G7A A14G A39G", "self-cleavage": 0}
{"variant": "A6U G7A C10G G33A A39G", "self-cleavage": 0}
{"variant": "A6U A11C G44C", "self-cleavage": 0.06}
{"variant": "A6U G19C A26U", "self-cleavage": 0.39}
{"variant": "A6G A11G A14U G21A C37A", "self-cleavage": 0.01}
{"variant": "A6G C10A G29A", "self-cleavage": 0.01}
{"variant": "A6C U32A C45U", "self-cleavage": 0.17}
{"variant": "A6U C10U U20C", "self-cleavage": 0.12}
{"variant": "A6G C15U G29U", "self-cleavage": 0.47}
{"variant": "A6G C23U G40A", "self-cleavage": 0.06}
{"variant": "A6G G19A U32A", "self-cleavage": 0.09}
{"variant": "A6U G17C G22U", "self-cleavage": 0.11}
{"variant": "A6U G17A C37A A39G", "self-cleavage": 0.13}
{"variant": "A6G G21U G30C G36A C45G", "self-cleavage": 0.03}
{"variant": "A6U C10U C31G C45U", "self-cleavage": 0.21}
{"variant": "A6U C8A A25G U43A", "self-cleavage": 0.04}
{"variant": "A6G A11G A24U", "self-cleavage": 0.04}
{"variant": "A6U A25U G33C", "self-cleavage": 0.04}
{"variant": "A6G C31U C45G", "self-cleavage": 0.01}
{"variant": "A6U A26C C42U", "self-cleavage": 0.34}
{"variant": "A6C U9C A14G C46U", "self-cleavage": 0.03}
{"variant": "A6U C13G G33C", "self-cleavage": 0.07}
{"variant": "A6U A11G G29A", "self-cleavage": 0.02}
{"variant": "A6G G27A G29A C31G", "self-cleavage": 0.05}
{"variant": "A6G C10U C18G G36C", "self-cleavage": 0.02}
{"variant": "A6G G27A A39U", "self-cleavage": 0.69}
{"variant": "A6G C10A C15U", "self-cleavage": 0.01}
{"variant": "A6C U20G C31G G35A U38A", "self-cleavage": 0.01}
{"variant": "A6G C13G C18A G36U A39G", "self-cleavage": 0.03}
{"variant": "A6G A14G C18A C23G U32C U38C", "self-cleavage": 0}
{"variant": "A6G C15A A25C", "self-cleavage": 0.11}
{"variant": "A6U C10A A11U A12U A41G U43C", "self-cleavage": 0.02}
{"variant": "A6C U38C C46U", "self-cleavage": 0.2}
{"variant": "A6U C10A G17U", "self-cleavage": 0.06}
{"variant": "A6U C8U C13U C18U G21U G40A", "self-cleavage": 0.08}
{"variant": "A6U G7U A14G", "self-cleavage": 0.09}
{"variant": "A6U A11U C15A C45A", "self-cleavage": 0.03}
{"variant": "A6G A16C C23A A26G C31G", "self-cleavage": 0.03}
{"variant": "A6G U20C U38C", "self-cleavage": 0.01}
{"variant": "A6G C37A C46U", "self-cleavage": 0.38}
{"variant": "A6C U9C A16U G44C", "self-cleavage": 0.04}
{"variant": "A6C U28G G35U C42A", "self-cleavage": 0.02}
{"variant": "A6U C10A C13A G19U G27A C31U", "self-cleavage": 0.01}
{"variant": "A6G G27C G30A U43A C45A", "self-cleavage": 0.13}
{"variant": "A6G C37A C42A", "self-cleavage": 0.03}
{"variant": "A6G A16U G27A U34G", "self-cleavage": 0.06}
{"variant": "A6G C15G G30U A41U", "self-cleavage": 0.02}
{"variant": "A6U A25G U32A", "self-cleavage": 0.1}
{"variant": "A6G U9A C37G C46U", "self-cleavage": 0.02}
{"variant": "A6U G17A G19U", "self-cleavage": 0.06}
{"variant": "A6U A39U U43A", "self-cleavage": 0}
{"variant": "A6U C8G U20A G36U G40U", "self-cleavage": 0.03}
{"variant": "A6G G17C A24U C37U A41U C42U", "self-cleavage": 0}
{"variant": "A6G G19U U43A", "self-cleavage": 0.11}
{"variant": "A6U G7U G29U", "self-cleavage": 0.07}
{"variant": "A6G C8G C13U", "self-cleavage": 0.04}
{"variant": "A6G C8A U20C G40A C45G", "self-cleavage": 0.01}
{"variant": "A6G C15U G29C G44C", "self-cleavage": 0.11}
{"variant": "A6U G7U C15G A16U G17C", "self-cleavage": 0.01}
{"variant": "A6G A25G U38A", "self-cleavage": 0.01}
{"variant": "A6U A11G A12C U34C U38C", "self-cleavage": 0}
{"variant": "A6U A25C C31A C42A U43G", "self-cleavage": 0.11}
{"variant": "A6G C18G G29U", "self-cleavage": 0.13}
{"variant": "A6U G19U U38C A41G", "self-cleavage": 0.12}
{"variant": "A6G G19U G44A", "self-cleavage": 0.07}
